Among all 340,000 compounds or so, about 12,000 (3.5%) were called active. Inconclusive results, whose numbers are uncertain, are shown with a selection of clear calls. Calls follow the shape of the dose curve; as a rule, active = well fitted inhibition curve with a large enough effect; inconclusive = small, poorly fitted or top-dose-only effect, or another doubt; inactive = no such curve, though single readings can be large or run the other way. No potency is given beside an inconclusive call; the fits are too rough.
experiment: qHTS Assay for Inhibitors of Hepatitis C Virus (HCV); conditions: Huh7.5.1 HCVcc-Cre (HCVcc is cell-culture hepatitis C virus) infection, luciferase reporter, 44 h; activity change, negative = inhibition: at 41.8 µM (top of the series) unless noted
Outline: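 Reporter virus HCVcc-Cre (~0.5 moi) infects cells exposed to compound; seeding density 1,000 cells/well with 4 h settling beforehand. Luminescence, 15 sec read, taken 44 h post-infection following a 15 min RT substrate incubation.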
% is scaled to controls: 0 for no effect and ±100 for the full control effect; potency is read from the fitted curve at half-maximal effect; tags tell the direction and shape of the fitted curve.

Row | SMILES | Potency | activity change, negative = inhibition
1 | CCOC(=O)c1c(C)oc2c1c(C=NCc1ccccn1)c(O)c1ccccc12 | active: 4.47 µM | –
2 | COc1cc(/C=C/C(=O)N(C)CC(=O)Nc2ccccc2Br)cc2c1OCCO2 | inconclusive [inhibitor, full curve] | –
3 | Cc1oc2cc3oc(=O)c4c(c3cc2c1C)CCC4 | inconclusive [inhibitor, single point] | –
4 | C[C@@H]1C(c2cccc(Cl)c2)=NN(c2ccc(Br)cc2)[C@H]1C(=O)N1CCOC1=O | inconclusive [inhibitor, partial curve] | –
5 | COC(=O)[C@]1(C)N[C@H](CN(C)C(C)=O)[C@@H]2C(=O)N(C)C(=O)[C@@H]21 | – | inactive: -3.61%
6 | COc1ccc(CCNc2cc(N3CCN(C(=O)c4ccccc4OC)CC3)ccc2[N+](=O)[O-])cc1OC | inconclusive [inhibitor, partial curve] | –
7 | NC(=O)C1CCN(C(=O)NC2CC(=O)N(c3ccc4c(c3)OCCO4)C2)CC1 (stereo unspecified) | – | inactive: 4.9%
8 | Cc1cccc(N2CC(C)Cn3c2nc2c3c(=O)[nH]c(=O)n2C)c1 (stereo unspecified) | – | inactive: -1.69%
9 | CCOC(=O)c1cnc2c(Cl)c(Cl)ccc2c1NCCN1CCOCC1 | inconclusive [inhibitor, full curve] | –
10 | CNS(=O)(=O)c1ccc(NC(=O)c2cnn3c(C(F)F)cc(-c4ccccc4)nc23)cc1 | inconclusive [inhibitor, partial curve] | –
11 | COc1cc(NS(=O)(=O)c2c(C)oc3c(F)c(F)c(F)c(F)c23)cc(OC)c1OC | – | inactive: -20.8%
12 | Cc1ccc(NC(=O)c2snc3ccc(Cl)cc23)cc1C | inconclusive [inhibitor, full curve] | –
13 | Cn1c(=O)c(=O)n(C)c2cc(N3CCCC3)c(NS(=O)(=O)c3ccc(F)cc3)cc21 | – | inactive: 5.9%
14 | COc1cc(OC)cc(C(=O)Nc2ccc(N3CCN(C(=O)c4cccs4)CC3)cc2)c1 | inconclusive [inhibitor, partial curve] | –
15 | Cc1cc(C)c2c(n1)SCC(=O)N2CC(=O)Nc1cc(F)ccc1F | – | inactive: 6.63%
16 | CC/C(=N/NC(=O)c1ccc2c(c1)OCO2)c1ccccc1O | active: 3.16 µM | –
17 | O=C(CSc1nnc(Cc2cccs2)n1Cc1ccco1)Nc1ccc(Cl)cc1Cl | inconclusive [inhibitor, partial curve] | –
18 | CCOC(=O)C1(Cc2ccc(Cl)cc2)CCN(Cc2ccon2)CC1 | – | inactive: 1.48%
19 | CSc1nc(N2CCOCC2)c2sccc2n1 | inconclusive [inhibitor, partial curve] | –
20 | CCOc1cc(CN2CCN(C(=O)c3cccc4ccccc34)CC2)ccc1OC | inconclusive [inhibitor, single point] | –
21 | COC(=O)c1ccc(-c2sc3nc(N4CCOCC4)c4c(c3c2N)CC(C)(C)OC4)o1 | inconclusive [inhibitor, full curve, poor fit] | –
22 | Cc1cc(Nc2ccccc2)n(-c2ccccc2)n1 | inconclusive [inhibitor, single point] | –

Row | SMILES | Potency | activity change, negative = inhibition
23 | O=[N+]([O-])c1ccc(CSc2ccc(S(=O)(=O)N3CCCCC3)cn2)cc1 | inconclusive [inhibitor, single point] | –
24 | COC(=O)C1=C(c2ccc(F)cc2OCc2ccccc2)C[C@@H]2CC[C@H]1N2C(=O)NC(C)C | inconclusive [inhibitor, single point] | –
25 | CC(=O)c1ccccc1OCC(O)CN1CCN(CCN2C(=O)c3cccc4cccc(c34)C2=O)CC1 (stereo unspecified) | active: 10 µM | –
26 | CCC(C)NCCOCCOc1ccc(C)cc1Br (stereo unspecified) | inconclusive [inhibitor, single point] | –
27 | CCc1noc(C)c1C(=O)Nc1cc(S(=O)(=O)N2CCOCC2)ccc1OCC(F)(F)F | – | inconclusive: -72.6% [inhibitor]
28 | Cc1nn(-c2ccccc2)c(C)c1-c1ccccc1O | inconclusive [inhibitor, full curve, poor fit] | –
29 | CCn1c(SCC(=O)NC2CCCCC2)nc2ccccc2c1=O | – | inactive: 2.66%
30 | Cc1cc(Br)cc2c(C(=O)Nc3c(C)n(C)n(-c4ccccc4)c3=O)cc(-c3cccs3)nc12 | inconclusive [inhibitor, partial curve] | –
31 | CC(Nc1nc(-c2ccc(F)cc2)cs1)c1nc2cc(Cl)c(N3CCCCC3)cc2n1CCCO (stereo unspecified) | inconclusive [inhibitor, single point] | –
32 | COc1ccc(NC(=O)CCN2C(=O)NC3(CCCC3)C2=O)cc1Cl | – | inactive: 0.125%
33 | Cc1nc(COc2ccc(C(=O)NCc3ccccc3CN3CCCCC3)cc2)cs1 | inconclusive [inhibitor, single point] | –
34 | O=C(/C=C/c1ccc(Br)cc1)NC(=O)c1ccccc1O | – | inactive: 0.2%
35 | CCOc1ccc(N2CC(C(=O)NCc3ccc(C)n3C)CC2=O)cc1 (stereo unspecified) | inconclusive [inhibitor, partial curve] | –
36 | CCOC(=O)c1c(NC(=O)CSc2nc3c(c(=O)n(C)c(=O)n3C)n2CC)sc(C)c1C | inconclusive [inhibitor, single point] | –
37 | Cc1ccc(Cn2c(C(C)Nc3nc(C)cs3)nc3cc(Cl)c(Cl)cc32)cc1 (stereo unspecified) | inconclusive [inhibitor, partial curve, poor fit] | –
38 | C=CCNc1ncnc2c1cnn2-c1cccc(C)c1 | inconclusive [inhibitor, partial curve] | –
39 | O=C(N/N=C/c1ccc([N+](=O)[O-])o1)c1cn(-c2ccccc2)nc1-c1ccc(Cl)cc1 | inconclusive [inhibitor, single point] | –
40 | CCOC(=O)N1CCN(C(=O)COc2cccc3c2CCN(Cc2cccc(C)c2)C3=O)CC1 | inconclusive [inhibitor, partial curve, poor fit] | –
41 | Cc1ccc(-c2csc(NC(=O)c3c(C)noc3C)n2)s1 | inconclusive [inhibitor, partial curve] | –
42 | CN(C)CCCN(C(=O)c1ccc(S(=O)(=O)N2CCCC2)cc1)c1nc2c(F)cc(F)cc2s1 | inconclusive [inhibitor, single point] | –
43 | CCc1ccc(CN(C)C(=O)c2cc(S(=O)(=O)N3CCN(CC)CC3)ccc2Cl)cc1 | inconclusive [inhibitor, single point] | –
44 | Cc1ccc(NC(=O)Nc2nc3ccccc3s2)cc1NC(=O)Nc1nc2ccccc2s1 | active: 14.1 µM | –

Row | SMILES | Potency | activity change, negative = inhibition
45 | COc1ccccc1N1CCN(Cc2nc(-c3ccc(F)cc3)oc2C)CC1 | active: 22.4 µM | –
46 | COc1ccccc1-c1cc2nc(C)c(CCC(=O)NCc3ccc(F)cc3)c(C)n2n1 | inconclusive [inhibitor, partial curve] | –
47 | COc1cc(-c2nc(-c3ccccc3)c(-c3cc([N+](=O)[O-])ccc3C)[nH]2)cc(OC)c1OC | active: 12.6 µM | –
48 | Cc1ccc(NC(=O)c2cncc(Br)c2)cc1S(=O)(=O)N(C)C | inconclusive [inhibitor, partial curve] | –
49 | O=C(Nc1ccccc1SCC1CSc2nc3ccccc3c(=O)n21)c1cccc(Cl)c1 (stereo unspecified) | – | inactive: -4.82%
50 | COc1cccc(CN2CCC(n3nccc3NC(=O)CCCc3ccccc3)CC2)c1 | – | inactive: -22.4%
51 | Cc1nc2cc(OCc3cc(C(=O)NC(C)c4cnn(C)c4)no3)ccc2s1 (stereo unspecified) | inconclusive [inhibitor, single point] | –
52 | O=C(Nc1ccc2sc3ccccc3c(=O)c2c1)c1ccccc1Cl | active: 3.55 µM | –
53 | COc1ccc(NC(=S)N2CCC(c3nc4ccc(Cl)cc4[nH]3)CC2)c(OC)c1 | – | inactive: -26.7%
54 | Cc1c(C(=O)Nc2ccc(C(F)(F)F)cc2)sc2ncn(CC(=O)N3CCN(c4ccccn4)CC3)c(=O)c12 | inconclusive [inhibitor, partial curve, poor fit] | –
55 | Cc1ccc(C(=O)Nc2ccc3c(c2)CCC3)o1 | inconclusive [inhibitor, single point] | –
56 | CSc1nc2nc(-c3ccccc3)cc(C(F)(F)F)n2n1 | inconclusive [inhibitor, single point] | –
57 | O=C(Cc1ccc(S(=O)(=O)N2CCOCC2)s1)NCCOc1ccccc1F | inconclusive [inhibitor, single point] | –
58 | O=S(=O)(c1c(F)cccc1F)N1CCCC2CCCCC21 (stereo unspecified) | inconclusive [inhibitor, single point] | –
59 | CC(=O)N=Cc1c(C)c(C#N)c(=O)n(C)c1O | – | inactive: 15.2%
60 | COc1cccc2sc(Nc3nc(-c4cc5ccccc5oc4=O)cs3)nc12 | inconclusive [inhibitor, partial curve] | –
61 | O=C(Nc1ccccc1)[C@@H]1CC=C[C@@H]2CCN(Cc3ccc(Cl)c(Cl)c3)C(=O)[C@@H]21 | inconclusive [inhibitor, single point] | –
62 | O=C(CCC1CCCCC1)Nc1ccc(C(=O)c2ccncc2)cc1 | inconclusive [inhibitor, partial curve] | –
63 | COc1cc(CCC(=O)N2CCN(S(=O)(=O)c3ccc(C)c(C)c3)CC2)cc(OC)c1OC | inconclusive [inhibitor, single point] | –
64 | CC(C)c1cccc(C(C)C)c1NC(=O)Cn1c(=O)cnc2ccccc21 | inconclusive [inhibitor, full curve] | –
65 | Cc1onc(-c2c(F)cccc2Cl)c1C(=O)OCC(=O)NC(N)=O | inconclusive [inhibitor, partial curve] | –
66 | CSc1ccc(CN(C)C(=O)c2cc(S(=O)(=O)NCc3ccccc3)ccc2C)cc1 | inconclusive [inhibitor, partial curve] | –

Source: PubChem BioAssay AID651820 (National Center for Advancing Translational Sciences (NCATS), 2012)
